Data on two molecules can be found in patent publication CN115340605A (MABWELL SHANGHAI BIOSCIENCE CO LTD, dated 2022).

One test concerns the target T1, 鼠PD-L1重组蛋白 (鼠 (murine), UniProt Q9EP73 part only, limits assumed).
T1 construct: also called 重组鼠PD-L1
Put plainly: BLI (Octet QKe), antibody captured on AHC probe, antigen in solution. In general terms: Biolayer interferometry detects binding as a change in optical thickness at a sensor tip.

Test [1] deals with T2, 表达在细胞表面的人PD-L1 (human, UniProt Q9NZQ7).
T2 construct: whole, on cells; also called CHO-PD-L1-CD3L细胞; CHO-PD-L1
Put plainly: flow cytometry on CHO-PD-L1-CD3L cells, FITC anti-human Fc, MFI. In general terms: In flow cytometry, cells or beads pass a laser one at a time.

In test [2] the target is T2, 表达在细胞表面的人PD-L1. Put plainly: cell-based or functional assay.
T2 sequence (Q9NZQ7 19-290): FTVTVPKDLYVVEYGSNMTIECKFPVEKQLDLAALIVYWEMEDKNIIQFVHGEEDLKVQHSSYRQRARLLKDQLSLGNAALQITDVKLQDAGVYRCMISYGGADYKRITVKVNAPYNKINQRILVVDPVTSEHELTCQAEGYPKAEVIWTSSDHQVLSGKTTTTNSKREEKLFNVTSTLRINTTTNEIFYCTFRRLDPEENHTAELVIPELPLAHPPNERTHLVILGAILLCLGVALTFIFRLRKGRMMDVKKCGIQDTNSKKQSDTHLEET

鼠PD-L1重组蛋白, sequence (Q9EP73 19-238 limits assumed): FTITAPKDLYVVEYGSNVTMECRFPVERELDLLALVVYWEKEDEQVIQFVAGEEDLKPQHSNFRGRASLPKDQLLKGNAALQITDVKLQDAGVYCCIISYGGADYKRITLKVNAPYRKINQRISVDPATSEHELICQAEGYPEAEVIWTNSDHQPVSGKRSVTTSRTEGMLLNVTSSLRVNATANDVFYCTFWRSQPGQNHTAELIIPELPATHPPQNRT

B1: 人-骆驼嵌合单域抗体融合蛋白 (VHH-B6-human-Fc chimeric antibody) (Fc fusion)
chain: QVQLQESGGDSVQAGGSLRLSCIASEYIGDRYCAGWFRQAPGKEREGVAMIDRHGIVRYKDSVEGRFTISRNHAGNTLFLEMNSLKAEDTAMYYCAAERDPTNVTPCRPEYPDMDYWGKGTQVTVSSAS[gap - human IgG1 Fc with changes]
notes: also called chB6
In the case of B1, in the test with 鼠PD-L1重组蛋白, the binding result is on record as “no binding (tested: 60nM)”. The midpoint of the response with 表达在细胞表面的人PD-L1 [1], the EC50, lay at 0.87 nM.

B2: KN035-hFc融合蛋白 (Fc fusion)
chain: QVQLVESGGGLVQPGGSLRLSCAASGKMSSRRCMAWFRQAPGKERERVAKLLTTSGSTYLADSVKGRFTISRDNSKNTVYLQMNSLRAEDTAVYYCAADSFEDPTCTLVTSSGAFQYWGQGTLVTVSSAS[gap - human IgG1 Fc with changes]
notes: Control antibody, built in the same form as chB6 (variable region + hFc); also called Envafolimab
In the case of B2, the binding result with 鼠PD-L1重组蛋白 is “no binding (tested: 60nM)”. For the same molecule, the “EC50, 报告基因法 (Jurkat-PD1-NFAT细胞和CHO-PD-L1-CD3L细胞, RLU)” value with 表达在细胞表面的人PD-L1 [2] was determined as 3.31 nM. It took 1.27 nM to reach a half-maximal effect in the test with 表达在细胞表面的人PD-L1 [1] (EC50).
